Target: the molecule itself
Test: SEC

B1: E. coli DegS (residues 27–355) lacking the wild-type membrane anchor, N-terminal His6 tag (enzyme, UniProt P0AEE3 27-355, looked up)
chain: RSLNPLSTPQFDSTDETPASYNLAVRRAAPAVVNVYNRGLNTNSHNQLEIRTLGSGVIMDQRGYIITNKHVINDADQIIVALQDGRVFEALLVGSDSLTDLAVLKINATGGLPTIPINARRVPHIGDVVLAIGNPYNLGQTITQGIISATGRIGLNPTGRQNFLQTDASINHGNSGGALVNSLGELMGINTLSFDKSNDGETPEGIGFAIPFQLATKIMDKLIRDGRVIRGYIGIGGREIAPLHAQGGGIDQLQGIVVNEVSPDGPAANAGIQVNDLIISVDNKPAISALETMDQVAEIRPGSVIPVVVMRDDKQLTLQVTIQEYPATN
  stoichiometry N: 3

Reference: PMC2742306 (Molecular cell, 2009)
